Assay results published in article PMC6664820, “Novel natural and synthetic inhibitors of solute carriers SGLT1 and SGLT2” (Pharmacology Research & Perspectives, 2019).
The list shows a part of the results, in another mix than the full data.

Each compound was assayed against human SGLT1 (hSGLT1) (human, UniProt P13866) (assay: primary screen, percent of control activity; higher = less effect of the substance). Conditions: 50 µM.
Set-up: single well
Procedure: Two days before the assay, CHO‐wild type and CHO‐hSGLT1 cells were seeded in maintenance medium at 25 000 cells/well in clear‐bottom black 96‐well cell culture plates. Before the assay, cells were washed 3 times with 150 μL/well D‐glucose free DMEM with 0.3% (w/v) BSA. Library compounds at 50 μmol/L (singlicate) prepared in D‐glucose free DMEM with 160 μmol/L 1‐NBD‐glucose and 0.3% (w/v) BSA and negative controls (triplicate) were added at 100 μL/well and placed in a humidified incubator at 37°C with 5% CO2 for 90 minutes. Next, cells were washed 3 times with DMEM with 0.3% (w/v) BSA (150 μL/well). Care was taken to remove all medium after the last wash. Finally, 1‐NBD‐glucose was extracted from the cells by adding 10 μL/well isopropanol and orbital shaking for 5 minutes at 600 rpm, followed by incubation in the dark for 30 minutes. Fluorescence was measured on a Tecan Infinite M200 Microplate Reader (Tecan, Männedorf, Switzerland) with excitation at 445 nm and emission at 525 nm. The amount of 1‐NBD‐glucose taken up by the CHO‐wild type or CHO‐hSGLT1 cells in the presence or absence of test compounds was interpolated from 1‐NBD‐glucose calibration standards. The background uptake by CHO‐wild type was subtracted from the uptake by CHO‐hSGLT1. Background corrected uptake with test compound was expressed as a percentage of corrected uptake without test compound.

Going from `CN1CCN(CC(=O)N2c3ccccc3C(=O)Nc3cccnc32)CC1.Cl.Cl` to `CN1CCN(CCCN2c3ccccc3Sc3ccc(Cl)cc32)CC1.O=S(=O)(O)CCS(=O)(=O)O`, the “NORMALIZED SGLT1 ACTIVITY (%)” value falls from 116% to 83%.

Going from `CN(C)C(=O)C(CCN1CCC(O)(c2ccc(Cl)cc2)CC1)(c1ccccc1)c1ccccc1.Cl` to `CN1CCC[C@@H]1CCO[C@](C)(c1ccccc1)c1ccc(Cl)cc1.O=C(O)/C=C/C(=O)O`, the “NORMALIZED SGLT1 ACTIVITY (%)” value falls from 188% to 54%.

First: Clc1ccc(COC(Cn2ccnc2)c2ccc(Cl)cc2Cl)cc1.O=[N+]([O-])O (centres unmarked)
Second: Clc1ccc(CSC(Cn2ccnc2)c2ccc(Cl)cc2Cl)cc1.O=[N+]([O-])O (centres unmarked)
The “NORMALIZED SGLT1 ACTIVITY (%)” value of the first is lower: 49% for the first, 64% for the second.

Compared with `Cl.O=c1n(CCCN2CCN(c3cccc(Cl)c3)CC2)nc2ccccn12`, `Cl.Cl.OCCN1CCN(CCCN2c3ccccc3Sc3ccc(C(F)(F)F)cc32)CC1` is lower in “NORMALIZED SGLT1 ACTIVITY (%)” value: 142% for the first, 90% for the second.

Going from `C[C@@H]1CC2C3CCC4=CC(=O)C=C[C@]4(C)[C@@]3(F)[C@@H](O)C[C@]2(C)[C@@]1(O)C(=O)COP(=O)([O-])[O-].[Na+].[Na+]` (some centres unmarked) to `CN1C2CCC1CC(OC(c1ccccc1)c1ccccc1)C2.CS(=O)(=O)O` (centres unmarked), the “NORMALIZED SGLT1 ACTIVITY (%)” value falls from 99% to 73%.

First: Br.CN1C2CC[C@H]1C[C@@H](OC(=O)C(O)c1ccccc1)C2 (some centres unmarked)
Second: Cc1ccccc1C(OCCN(C)C)c1ccccc1.O=C(O)CC(O)(CC(=O)O)C(=O)O (centres unmarked)
The “NORMALIZED SGLT1 ACTIVITY (%)” value of the first is higher: 87% for the first, 81% for the second.

Compared with `Cl.Cl.Fc1ccc(C(c2ccc(F)cc2)N2CCN(C/C=C/c3ccccc3)CC2)cc1`, `CNCCC(Oc1ccc(C(F)(F)F)cc1)c1ccccc1.Cl` (centres unmarked) is higher in “NORMALIZED SGLT1 ACTIVITY (%)” value: 68% for the first, 103% for the second.

First: CN(C)CC/C=C1/c2ccccc2COc2ccccc21.Cl
Second: CN(C)CCCN1c2ccccc2CCc2ccc(Cl)cc21.Cl
The “NORMALIZED SGLT1 ACTIVITY (%)” value of the first is higher: 70% for the first, 39% for the second.

Going from `CCCCCCCCCCCCCCCC[n+]1ccccc1.[Cl-]` to `CN(C)CCN(Cc1cccs1)c1ccccn1.Cl`, the “NORMALIZED SGLT1 ACTIVITY (%)” value rises from 16% to 67%.

Going from `CC(C)NC[C@H](O)COc1cccc2ccccc12.Cl` to `CC(C)NCC(O)COc1cccc2ccccc12.Cl` (racemic), the “NORMALIZED SGLT1 ACTIVITY (%)” value rises from 141% to 403%.

First: CSc1ccc2c(c1)N(CCC1CCCCN1C)c1ccccc1S2.Cl (centres unmarked)
Second: CN[C@H]1CC[C@@H](c2ccc(Cl)c(Cl)c2)c2ccccc21.Cl
The “NORMALIZED SGLT1 ACTIVITY (%)” value of the first is higher: 104% for the first, 5% for the second.

Going from `Cl.Oc1ccc2c3c1OC1[C@@H](O)CC[C@@]4(O)[C@@H](C2)N(CC2CCC2)CC[C@]314` (some centres unmarked) to `CNCCCC12CCC(c3ccccc31)c1ccccc12.Cl`, the “NORMALIZED SGLT1 ACTIVITY (%)” value falls from 119% to 96%.

Going from `CCN(CC)CCOc1ccc(/C(=C(\Cl)c2ccccc2)c2ccccc2)cc1.O=C(O)CC(O)(CC(=O)O)C(=O)O` to `CC/C(=C(\c1ccccc1)c1ccc(OCCN(C)C)cc1)c1ccccc1.O=C(O)CC(O)(CC(=O)O)C(=O)O`, the “NORMALIZED SGLT1 ACTIVITY (%)” value falls from 110% to 108%.

Compared with `Clc1ccc(COC(Cn2ccnc2)c2ccc(Cl)cc2Cl)c(Cl)c1.O=[N+]([O-])O` (centres unmarked), `Clc1ccc(CO/N=C(\Cn2ccnc2)c2ccc(Cl)cc2Cl)c(Cl)c1.O=[N+]([O-])O` is higher in “NORMALIZED SGLT1 ACTIVITY (%)” value: 65% for the first, 209% for the second.

In the case of `CCN(CC)CCOC(=O)C1(C2CCCCC2)CCCCC1.Cl`, the “NORMALIZED SGLT1 ACTIVITY (%)” value is reported as 72%.
